# According to the supplement of paper PMC4604168 (melanoma cell lines):
# This is one part of the list. Most values come without repeats; read them as rough.
# Assays:
# Experiment in all cases: cell count relative to DMSO control; melanoma cells; higher = more viable cells
# Details in all cases: library dose: low library concentration; 72 h
# COLO792 = test system: COLO792
# COLO800 = test system: COLO800
# COLO829 = test system: COLO829
# G361 = test system: G361
# IPC-298 = test system: IPC-298
# IST-MEL1 = test system: IST-MEL1
# LB2518-MEL = test system: LB2518-MEL
# LOXIMVI = test system: LOXIMVI
# MEL-HO = test system: MEL-HO
# MZ2-MEL = test system: MZ2-MEL
# MeWo = test system: MeWo
# RPMI7951 = test system: RPMI7951
# RVH-421 = test system: RVH-421
# SkMel28 = test system: SkMel28
# SkMel2 = test system: SkMel2
# SkMel30 = test system: SkMel30
# SkMel5 = test system: SkMel5
# UACC257 = test system: UACC257
# UACC62 = test system: UACC62
# 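Note: cell number obtained by counting DAPI-stained nuclei in high-throughput microscope images with image analysis software, screen run in 1,536-well plates.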
compound,measurement,setting,value
"CCCS(=O)(=O)Nc1ccc(F)c(C(=O)c2c[nH]c3ncc(Cl)cc23)c1F + COc1cc2ncnc(Nc3ccc(Oc4ccccc4)cc3)c2cc1OC [SrcI1] (first compound 0.08 µM, partner dose 2 µM)",cell count,COLO792,85.5%
same,cell count,COLO800,140%
same,cell count,COLO829,103%
same,cell count,G361,95.4%
same,cell count,IPC-298,88.6%
same,cell count,IST-MEL1,105%
same,cell count,LB2518-MEL,145%
same,cell count,LOXIMVI,62.7%
same,cell count,MEL-HO,98%
same,cell count,MZ2-MEL,81.9%
same,cell count,MeWo,98.9%
same,cell count,RPMI7951,99.6%
same,cell count,RVH-421,75.6%
same,cell count,SkMel28,89.4%
same,cell count,SkMel2,107%
same,cell count,SkMel30,88.2%
same,cell count,SkMel5,119%
same,cell count,UACC257,106%
same,cell count,UACC62,90.4%
"C=C(c1ccc(C(=O)O)cc1)c1cc2c(cc1C)C(C)(C)CCC2(C)C [Bexarotene] + Cn1cncc1[C@@](N)(c1ccc(Cl)cc1)c1ccc2c(c1)c(-c1cccc(Cl)c1)cc(=O)n2C [tipifarnib] (first compound 2 µM, partner dose 0.01 µM)",cell count,COLO792,102%
same,cell count,COLO800,122%
same,cell count,COLO829,104%
same,cell count,G361,96.9%
same,cell count,IPC-298,96%
same,cell count,IST-MEL1,97%
same,cell count,LB2518-MEL,108%
same,cell count,LOXIMVI,73.7%
same,cell count,MEL-HO,90.5%
same,cell count,MZ2-MEL,105%
same,cell count,MeWo,93.2%
same,cell count,RPMI7951,86.3%
same,cell count,RVH-421,94%
same,cell count,SkMel28,86.2%
same,cell count,SkMel2,72.1%
same,cell count,SkMel30,123%
same,cell count,SkMel5,101%
same,cell count,UACC257,113%
same,cell count,UACC62,83.4%
"CCCS(=O)(=O)Nc1ccc(F)c(C(=O)c2c[nH]c3ncc(Cl)cc23)c1F + CN(NC(=O)CC(=O)NN(C)C(=S)c1ccccc1)C(=S)c1ccccc1 [STA4783] (first compound 0.08 µM, partner dose 0.006 µM)",cell count,COLO792,72.3%
same,cell count,COLO800,62.6%
same,cell count,COLO829,76.2%
same,cell count,G361,73.4%
same,cell count,IPC-298,88.8%
same,cell count,IST-MEL1,71.2%
same,cell count,LB2518-MEL,91.9%
same,cell count,LOXIMVI,72.7%
same,cell count,MEL-HO,87.4%
same,cell count,MZ2-MEL,90.8%
same,cell count,MeWo,84.7%
same,cell count,RPMI7951,112%
same,cell count,RVH-421,67.9%
same,cell count,SkMel28,71.7%
same,cell count,SkMel2,93%
same,cell count,SkMel30,88%
same,cell count,SkMel5,114%
same,cell count,UACC257,80.9%
same,cell count,UACC62,54.8%
"CN(c1ncccc1CNc1nc(Nc2ccc3c(c2)CC(=O)N3)ncc1C(F)(F)F)S(C)(=O)=O + O=C(CCCCCCC(=O)Nc1ccccc1)NO [vorinostat] (first compound 0.08 µM, partner dose 0.08 µM)",cell count,COLO792,91%
same,cell count,COLO800,92.6%
same,cell count,COLO829,63.9%
same,cell count,G361,80.6%
same,cell count,IPC-298,96.2%
same,cell count,IST-MEL1,104%
same,cell count,LB2518-MEL,114%
same,cell count,LOXIMVI,75.3%
same,cell count,MEL-HO,96.4%
same,cell count,MZ2-MEL,95.4%
same,cell count,MeWo,90.2%
same,cell count,RPMI7951,76.9%
same,cell count,RVH-421,101%
same,cell count,SkMel28,57.6%
same,cell count,SkMel2,88%
same,cell count,SkMel30,118%
same,cell count,SkMel5,71.3%
same,cell count,UACC257,53.6%
same,cell count,UACC62,67%
"NC1(c2ccc(-c3nc4ccn5c(=O)[nH]nc5c4cc3-c3ccccc3)cc2)CCC1 + CN(C)S(=O)(=O)c1ccc2c(c1)/C(=C/c1cc3c([nH]1)CCCC3)C(=O)N2 [SU6656] (first compound 0.4 µM, partner dose 0.4 µM)",cell count,COLO792,66.9%
same,cell count,COLO800,77.2%
same,cell count,COLO829,83.4%
same,cell count,G361,91.5%
same,cell count,IPC-298,98.9%
same,cell count,IST-MEL1,89.4%
same,cell count,LB2518-MEL,92.8%
same,cell count,LOXIMVI,85.8%
same,cell count,MEL-HO,76.6%
same,cell count,MZ2-MEL,99.4%
same,cell count,MeWo,81.8%
same,cell count,RPMI7951,96.9%
same,cell count,RVH-421,78%
same,cell count,SkMel28,78.9%
same,cell count,SkMel2,75.1%
same,cell count,SkMel30,80.1%
same,cell count,SkMel5,90.4%
same,cell count,UACC257,96.8%
same,cell count,UACC62,72.5%
"CCCS(=O)(=O)Nc1ccc(F)c(C(=O)c2c[nH]c3ncc(Cl)cc23)c1F + COc1ccc(COc2ccc(Cc3cnc(N)nc3N)cc2OC)cc1 [GW2580] (first compound 0.08 µM, partner dose 1 µM)",cell count,COLO792,103%
same,cell count,COLO800,120%
same,cell count,COLO829,112%
same,cell count,G361,84.8%
same,cell count,IPC-298,91.9%
same,cell count,IST-MEL1,101%
same,cell count,LB2518-MEL,137%
same,cell count,LOXIMVI,82%
same,cell count,MEL-HO,92.6%
same,cell count,MZ2-MEL,89.6%
same,cell count,MeWo,108%
same,cell count,RPMI7951,106%
same,cell count,RVH-421,97.1%
same,cell count,SkMel28,84.8%
same,cell count,SkMel2,104%
same,cell count,SkMel30,91.9%
same,cell count,SkMel5,108%
same,cell count,UACC257,101%
same,cell count,UACC62,65.7%
"NC1(c2ccc(-c3nc4ccn5c(=O)[nH]nc5c4cc3-c3ccccc3)cc2)CCC1 + COc1cc(N2CCC(N3CCN(C)CC3)CC2)ccc1Nc1ncc(Cl)c(Nc2ccccc2S(=O)(=O)C(C)C)n1 [NVP-TAE684] (first compound 0.4 µM, partner dose 0.08 µM)",cell count,COLO792,87.2%
same,cell count,COLO800,75.6%
same,cell count,COLO829,91.8%
same,cell count,G361,97.8%
same,cell count,IPC-298,99.1%
same,cell count,IST-MEL1,93.9%
same,cell count,LB2518-MEL,90.1%
same,cell count,LOXIMVI,60.5%
same,cell count,MEL-HO,92.3%
same,cell count,MZ2-MEL,93.4%
same,cell count,MeWo,94.9%
same,cell count,RPMI7951,120%
same,cell count,RVH-421,79%
same,cell count,SkMel28,71.7%
same,cell count,SkMel2,90.3%
same,cell count,SkMel30,98.6%
same,cell count,SkMel5,106%
same,cell count,UACC257,95.7%
same,cell count,UACC62,68.3%
"NC1(c2ccc(-c3nc4ccn5c(=O)[nH]nc5c4cc3-c3ccccc3)cc2)CCC1 + CC(C)CCN1c2nc(Nc3cc(F)c(O)c(F)c3)ncc2N(C)C(=O)C1C [BID1870] (first compound 0.4 µM, partner dose 0.2 µM)",cell count,COLO792,55.7%
same,cell count,COLO800,83.7%
same,cell count,COLO829,94.1%
same,cell count,G361,98.4%
same,cell count,IPC-298,92.5%
same,cell count,IST-MEL1,83.6%
same,cell count,LB2518-MEL,86.9%
same,cell count,LOXIMVI,115%
same,cell count,MEL-HO,83.6%
same,cell count,MZ2-MEL,96.4%
same,cell count,MeWo,87.7%
same,cell count,RPMI7951,96.4%
same,cell count,RVH-421,94.3%
same,cell count,SkMel28,77.4%
same,cell count,SkMel2,82.3%
same,cell count,SkMel30,84.1%
same,cell count,SkMel5,106%
same,cell count,UACC257,84.5%
same,cell count,UACC62,72.5%
"CS(=O)(=O)c1ccc(C(=O)Nc2ccc(Cl)c(-c3ccccn3)c2)c(Cl)c1 [vismodegib] + CCc1ccc(CCOc2ccc(CC3SC(=O)NC3=O)cc2)nc1 [pioglitazone] (first compound 1 µM, partner dose 2 µM)",cell count,COLO792,94.5%
same,cell count,COLO800,91.7%
same,cell count,COLO829,92.1%
same,cell count,G361,99.4%
same,cell count,IPC-298,101%
same,cell count,IST-MEL1,107%
same,cell count,LB2518-MEL,85.5%
same,cell count,LOXIMVI,81.4%
same,cell count,MEL-HO,78.2%
same,cell count,MZ2-MEL,103%
same,cell count,MeWo,103%
same,cell count,RPMI7951,111%
same,cell count,RVH-421,112%
same,cell count,SkMel28,99.2%
same,cell count,SkMel2,97.4%
same,cell count,SkMel30,103%
same,cell count,SkMel5,104%
same,cell count,UACC257,114%
same,cell count,UACC62,95.4%
